# Among all 360,000 compounds or so, about 7,500 (2.1%) were called active. Inconclusive results, whose numbers are uncertain, are shown with a selection of clear calls. Calls follow the shape of the dose curve; as a rule, active = well fitted cell-killing curve with a large enough effect; inconclusive = small, poorly fitted or top-dose-only effect, or effect the other way, or another doubt; inactive = no such curve, though single readings can be large or run the other way. No potency is given beside an inconclusive call; the fits are too rough.
# Experiment: qHTS for induction of synthetic lethality in tumor cells producing 2HG: qHTS for the HT-1080-IDH1KD cell line;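 as to activity, negative = toxicity: 0% = DMSO wells and -100% = cell-free medium wells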
# Settings: HT-1080 IDH1 knockdown viability, ATP luminescence, 48 h; activity, negative = toxicity: at 46.1 µM (top of the series) unless noted
# Outline: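 Luminescent ATP read-out (CellTiter-Glo, 10 min at room temperature) after 48 h compound exposure at 37 °C gave viability of IDH1-knockdown HT-1080 cells. Activity was normalised to DMSO and cell-free wells, then fitted as concentration-response curves.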
# Potency is read from the fitted curve at half-maximal effect; tags tell the direction and shape of the fitted curve.
Structure (SMILES),Potency,"activity, negative = toxicity"
CCOC(=O)/C(=C\c1ccccc1)C(=O)c1cc(C(C)=O)c(Nc2ccccc2)s1,active: 6.31 µM,–
O=C(NCc1cnn(-c2ccccc2)c1)C1CCC(=O)N(C2CC2)C1 (configuration not stated),–,inactive: -1.01%
O=C(CCC(=O)N1CCCCCC1)Nc1ccc([N+](=O)[O-])cc1,"inconclusive [cytotoxic, partial curve, poor fit]",–
CC(C)C(c1nnnn1C1CCCC1)N1CCc2ccccc21 (configuration not stated),–,inactive: -3.56%
CCS(=O)(=O)c1nc(S(=O)(=O)c2ccc(C)cc2)c(N2CCCC2)s1,–,inconclusive: -0.0852% [cytotoxic]
CCCCCOc1ccc(C(O)C(CN2CCOCC2)c2ccccc2)cc1 (configuration not stated),"inconclusive [cytotoxic, single point]",–
CCOC(=O)C1=C(C)N=C2c3ccccc3C(=O)C2C1c1ccc(C)cc1 (configuration not stated),"inconclusive [cytotoxic, partial curve]",–
Cc1ccnc(OC(C(=O)O)C(OCCc2ccccc2)(c2ccccc2)c2ccccc2)n1 (configuration not stated),–,inactive: -11.3%
C=CCc1cc(Cl)ccc1OCCCNCCO,"inconclusive [cytotoxic, single point]",–
CC1=NN(c2nc(-c3ccc(C)cc3)cs2)C(=O)C1N=Nc1ccc(C(N)=O)cc1 (configuration not stated),–,inconclusive: -13.3% [cytotoxic]
Cc1cc(=O)c2c(N(C)C)cccc2[nH]1,–,inactive: 5.31%
CCN1CCCC1CNC(=O)c1cc2c(-c3ccc(Cl)cc3)nn(C)c2s1 (configuration not stated),active: 20.6 µM,–
COC(=O)[C@@]12C[C@@H](CC(=O)NCc3cccc(C(F)(F)F)c3)C(=O)N(Cc3ccccc3)C1=CCC(C)(C)C2,"inconclusive [cytotoxic, single point]",–
CC(C)(C)c1cc(NC(=O)CCSc2nnc3ccccn23)cc(C(C)(C)C)c1,–,inconclusive: -31.5% [cytotoxic]
O=C(C(Cl)c1ccccc1)N1CCCC1 (configuration not stated),–,inconclusive: -5.14% [cytotoxic]
CCn1c(C(O)c2cccc(OC)c2OC)nc2ccccc21 (configuration not stated),"inconclusive [cytotoxic, single point]",–
CC(C)(C)OC(=O)[C@H](Cc1ccccc1)NC(=O)c1[nH]cnc1C(=O)Nc1ccc(Cl)cc1,"inconclusive [cytotoxic, single point]",–
Cc1nn(-c2ccccc2)c(Oc2ccccc2)c1C=O,–,inactive: 1.61%
Cc1ccc(N=Nc2ccc(O)c3ncccc23)cc1C,"inconclusive [cytotoxic, full curve]",–
CCN(C(=O)Cn1c(=O)n(Cc2ccccc2)c(=O)c2ccccc21)c1cccc(C)c1,–,inactive: -2.95%
COc1ccc(-n2cc(CNCc3cccnc3)c(-c3cccc(F)c3)n2)cc1,"inconclusive [cytotoxic, partial curve]",–
Cc1ccccc1-c1nc(-c2ccc(NC(=O)c3cccs3)cc2)no1,"inconclusive [cytotoxic, single point]",–
CCCCN(C)C(=O)c1cc2cc3ccc(OC)cc3nc2o1,"inconclusive [cytotoxic, partial curve]",–
CNc1nc(SC)nc(N(C)C#N)n1,–,inactive: -2.45%

Structure (SMILES),Potency,"activity, negative = toxicity"
Cc1nc([N+](=O)[O-])c(Br)n1CC(=O)c1ccc(F)cc1,active: 18.4 µM,–
CC1=NN(C(=O)COc2ccccc2C)C(O)(c2ccc(Cl)cc2)C1 (configuration not stated),–,inactive: 9.11%
Fc1ccc(-c2csc(N3CCC(c4ccccc4)C3)n2)cc1 (configuration not stated),"inconclusive [cytotoxic, single point]",–
O=C(c1ccc(Cl)cc1)C1CCCN(Cc2cnn(-c3ccccc3)c2)C1 (configuration not stated),"inconclusive [cytotoxic, partial curve]",–
COc1ccc(CN(Cc2ccccn2)S(=O)(=O)c2ccc(-n3cnnn3)c(OC)c2)cc1,"inconclusive [rising, single point]",–
C=CCNC(=O)c1cc2c(=O)n3cccc(C)c3nc2s1,"inconclusive [cytotoxic, single point]",–
CC(=O)c1cccc(-c2cnc3c(NC=O)cc(-c4ccc(N(C)C)cc4)cn23)c1,"inconclusive [cytotoxic, single point]",–
Cc1ccc(-c2cc(C(=O)N3N=C(C(F)F)CC3(O)C(F)F)c3ccccc3n2)cc1C (configuration not stated),"inconclusive [cytotoxic, single point]",–
Cc1ccc(C)c(N=Nc2ccc(O)c3ncccc23)c1,"inconclusive [cytotoxic, full curve]",–
Cc1noc(C)c1-c1ccc(C(=O)NCc2ccncc2)c2occc12,–,inactive: -15.1%
COc1ccc2c(c1)[nH]c1c(=O)n(Cc3ccccn3)cnc12,–,inactive: -14.3%
Clc1ccccc1CSc1ncccn1,–,inactive: 12.7%
O=C(c1ccccc1)c1nn(-c2ccccc2)c(=O)cc1C(F)(F)F,"inconclusive [cytotoxic, single point]",–
COc1ccccc1-c1cc2nc(NCc3cccc(Cl)c3)ccn2n1,–,inactive: -18.2%
Cc1sc2ncnc(NCC(O)c3ccc([N+](=O)[O-])cc3)c2c1C (configuration not stated),"inconclusive [cytotoxic, single point]",–
COc1cc(OC)cc(C(=O)Nc2ccccc2S(=O)(=O)N2CCCC2OC(C)=O)c1 (configuration not stated),–,inactive: -11.8%
CCCN(CCC)Cc1c(C(=O)N/N=C/C(C)=C\c2ccco2)nnn1-c1nonc1N,"inconclusive [cytotoxic, single point]",–
Cc1occc1-c1nc(-c2ccccn2)no1,"inconclusive [cytotoxic, partial curve]",–
COc1ccc(-c2sc3ccc(N4CCOCC4)cc3c2C#CC2(O)CCCCC2)cc1,"inconclusive [cytotoxic, single point]",–
CN(C)CCNC(=O)c1cccc2ccc(-c3ccc(-c4ccccc4)cc3)nc12,"inconclusive [cytotoxic, single point]",–
c1ccc(COc2ccccc2CNC23CC4CC(CC(C4)C2)C3)cc1,active: 16.4 µM,–
O=C(O)c1ccc(CS(=O)c2cccc(C(F)(F)F)c2)o1 (configuration not stated),–,inactive: 2.77%
CC(C)NC(=O)NC(=O)COC(=O)C1(C)CC1(Cl)Cl (configuration not stated),–,inactive: 1.45%

# — PubChem BioAssay AID686971 (National Center for Advancing Translational Sciences (NCATS), 2013)
